Among all 340,000 compounds or so, about 530 (0.16%) were called active. Inconclusive means that the source gave no clear call. Such entries were picked first, then a sample of the others. Cut-off read from the data, not from the text of the source: active = activity change below about -80%; inconclusive = between about -30% and that limit; inactive = weaker than that.
Test: Small Molecules that selectively kill Giardia lamblia: qHTS;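 note: parasites exposed to compound for two days anaerobically before the ATP read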
Settings: Giardia lamblia trophozoite viability; at 7.66 µM; hits give low values
Summary of the method: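 Luminescence from cellular ATP indicates surviving trophozoites (100 cells/well) following 48 hrs anaerobic compound treatment at 37 deg C; signal develops 15-30 min at room temperature.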
In the case of COc1c[nH]n(-c2ccccc2)c(=O)c1=O, the activity change is reported as inconclusive: -34.5% [inhibitor].
In the case of CC/C(=N/Nc1ccc(Cl)cc1)c1cnnc(SC)n1, the activity change is reported as inconclusive: -34.2% [inhibitor].
In the case of COc1cc(/C=C2\SC(=O)N(c3cccc(Cl)c3)C2=O)cc([N+](=O)[O-])c1O, the activity change is reported as inconclusive: -31.5% [inhibitor].
In the case of O=C(COC(=O)c1ccco1)NCC1CCCCC1, the activity change is reported as inactive: 0.525%.
For COc1ccccc1-c1nnc(C2CCN(S(=O)(=O)c3cccc([N+](=O)[O-])c3)CC2)o1, the activity change was inconclusive: -50.8% [inhibitor].
With COc1ccc(CCNc2nc(-c3ccc(O)cc3)cs2)cc1OC the activity change was inconclusive: -43.3% [inhibitor].
With COC(=O)c1ccc(-n2nnnc2SCC(=O)Nc2ccccc2F)cc1 the activity change was inactive: -13.5%.
In the case of COc1cc(NS(=O)(=O)c2ccc3c(c2)oc(=O)n3C)cc(OC)c1OC, the activity change is reported as inconclusive: -31.6% [inhibitor].
In the case of O=[N+]([O-])c1ccc(/C=N/Nc2ccc3ccccc3c2)o1, the activity change is reported as inconclusive: -47.7% [inhibitor].
In the case of Cc1ccc(C(=O)NC2CCN(CC(=O)NCc3cccs3)CC2)cc1, the activity change is reported as inconclusive: -34.9% [inhibitor].
With Cn1nc(C(=O)Nc2cccc(S(=O)(=O)N3CCCC3)c2)c2ccccc2c1=O the activity change was inconclusive: -34.1% [inhibitor].
For CCN1CCN(CCOc2ccccc2OCc2ccccc2)CC1, the activity change was inactive: 5.86%.
With C=CC[C@H](CC(=O)N(CCO)Cc1ccccc1)C(=O)N[C@@H](COC(=O)[C@@H](CC=C)Cc1ccc(F)cc1)Cc1c[nH]c2ccccc12 the activity change was inactive: 2.53%.
In the case of CCOC(=O)C1CCN(c2ncnc3c(C)csc23)CC1, the activity change is reported as inconclusive: -32% [inhibitor].
With COc1ccc(C[C@@H]2CN3C(=NC[C@@H]3C)N2C[C@H](C)NC(=O)c2ccc(C)c(Br)c2)cc1 the activity change was inactive: -11.6%.
For Cc1c(C#N)c(N)nc(Cl)c1C#N, the activity change was inconclusive: -31.8% [inhibitor].
In the case of COc1cc(/C=C/C(=O)O)cc(S(=O)(=O)Nc2cc(Cl)c(Cl)cc2Cl)c1OC, the activity change is reported as inconclusive: -35.5% [inhibitor].
For NNC(=O)c1cc(-c2ccccc2)sc1N, the activity change was inconclusive: -30.5% [inhibitor].
In the case of Cc1cc(C(=O)COc2cccnc2[N+](=O)[O-])c(C)n1-c1ccccc1, the activity change is reported as active: -88.5%.
In the case of O=C(Nc1ccccc1N1CCOCC1)c1ccc(S(=O)(=O)NCc2ccco2)cc1, the activity change is reported as inconclusive: -32.2% [inhibitor].
With CC(c1ccc(F)cc1)n1cc(C(=O)NCc2ccccn2)nn1 (stereo not given) the activity change was inactive: -10.9%.
With CCc1sc(C(C2C(=O)CC(C)(C)CC2=O)C2C(=O)CC(C)(C)CC2=O)cc1[N+](=O)[O-] the activity change was inactive: -2.08%.
In the case of CC(O)CCC(=O)NNC1CC(=O)N(c2ccccc2)C1=O (stereo not given), the activity change is reported as inconclusive: -31.2% [inhibitor].
For Fc1ccc(Nc2nc(N3CCOCC3)nc(N3CCOCC3)n2)cc1, the activity change was inactive: 9.59%.
With CC(=O)CSc1nc2ccccc2s1 the activity change was inactive: -11.6%.
For O=C(NCc1ccco1)c1cccc2ccccc12, the activity change was inconclusive: -32.9% [inhibitor].
With O=C(NCc1ccc2c(c1)OCO2)c1nc(S(=O)(=O)Cc2ccccc2F)ncc1Cl the activity change was inconclusive: -37.4% [inhibitor].
In the case of O=C(CCSCc1cccc(F)c1)NCc1ccc(F)cc1, the activity change is reported as inconclusive: -39.7% [inhibitor].
For O=C(COc1ccc(-c2ccccc2)cc1)NNC(=O)Nc1ccccc1, the activity change was inconclusive: -31.9% [inhibitor].
For O=C(NNC(=O)c1cccnc1SCc1cccc([N+](=O)[O-])c1)c1ccccn1, the activity change was inconclusive: -33.8% [inhibitor].
For Cc1ccc2[nH]c(=O)c(CN(Cc3nnnn3Cc3ccccc3)C3CCCC3)cc2c1, the activity change was inactive: -6.91%.
For O=C(Nc1ccc(F)cc1F)c1c(C(F)(F)F)ccnc1Oc1ccc(Cl)cc1, the activity change was inconclusive: -42.8% [inhibitor].
For CCN(CC)C(=O)C1CCN(Cc2cccc(OCc3ccccc3)c2)CC1, the activity change was inactive: -0.836%.
With COc1ccc(OC)c(NC(=O)CN2CCC(C(=O)c3ccc(C)cc3)CC2)c1 the activity change was inactive: 1.49%.
For COc1cc(/C=C2\SC(=O)N(Cc3ccc(F)cc3)C2=O)cc([N+](=O)[O-])c1O, the activity change was inconclusive: -52.4% [inhibitor].
In the case of CC(=O)c1cccc(NC(=O)c2ccc([N+](=O)[O-])o2)c1, the activity change is reported as active: -87.6%.
With COc1ccc(-c2ccc(SCC(=O)N3c4ccccc4CC3C)nn2)cc1OC (stereo not given) the activity change was inactive: -26.3%.
In the case of O=C(O)c1cc(-c2ccc3ccccc3n2)nc2ccccc12, the activity change is reported as inconclusive: -53% [inhibitor].
With O=S(=O)(CC(CN1CCOCC1)N1CCOCC1)c1ccccc1 (stereo not given) the activity change was inactive: -6.65%.
In the case of CCOC(=O)C1CCN(c2c([N+](=O)[O-])c(C(Cl)Cl)nn2-c2ccccc2)CC1, the activity change is reported as inconclusive: -49.4% [inhibitor].
In the case of Cn1c(=O)[nH]c(=O)c2c1nc(N1CCCC1)n2CCCSc1nnnn1-c1ccccc1, the activity change is reported as inconclusive: -31.7% [inhibitor].
For Cc1ccc2nc(Nc3nc(CSc4nc5ccccc5s4)cc(=O)[nH]3)nc(C)c2c1, the activity change was inactive: -2.76%.
For CCOc1cc(C=O)ccc1OCCn1c([N+](=O)[O-])cnc1C, the activity change was inconclusive: -66.9% [inhibitor].
With CCCN1CCN(CCNC(=O)Nc2cc(C)ccc2C)CC1 the activity change was inconclusive: -34.3% [inhibitor].
For COC(=O)CC/C(=N/Nc1ccc(Cl)c(Cl)c1)C(=O)OC, the activity change was inactive: -2.55%.
In the case of CCCC(=O)Nc1cccc(-c2nc3cc(C)c(C)cc3o2)c1, the activity change is reported as inconclusive: -31% [inhibitor].
In the case of Cc1c(C)n(CCc2ccccc2)c2ncnc(NCCCN(C)C)c12, the activity change is reported as inactive: 10.7%.
With Cn1c2ccccc2c(=O)c2cc(C#CC3=CCCCC3)ccc21 the activity change was inactive: -16.3%.
With N#C/C(=C/c1cn(CC(=O)O)c2ccccc12)C(=O)Nc1ccccc1 the activity change was inconclusive: -33.8% [inhibitor].
For CNNC(=S)NCCC1=CCCCC1, the activity change was inconclusive: -31.9% [inhibitor].

Source: PubChem BioAssay AID540267 (National Center for Advancing Translational Sciences (NCATS), 2011)
% is set by controls: 0 for no effect and ±100 for the full control effect.
